# Measurements published in the supplement of paper PMC12067093, “Discovery and optimisation of a covalent ligand for TRIM25 and its application to targeted protein ubiquitination” (Chemical Science, 2025).
# The full data set covers some 21,000 targets. This sample favours those with the largest changes.
# Compound: Cc1cc(ccc1-c1ccccc1)C(=O)N1CCCN(CC1)C(=O)CCl [compound 10]
# Assay: probe-labelled cysteine peptide fold change vs DMSO (competition) (log2 fold change); higher = less target engagement (more negative = stronger competition)
# Settings: 10 µM; THP-1; incubation time: 4 h
# 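Further: competitive profiling in live THP-1 cells: cysteine peptides tagged with an iodoacetamide desthiobiotin (IA-DTB) probe, intensity after compound treatment relative to DMSO-treated cells.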
# Sequence of UniProt Q9NW15 (Q9NW15 whole entry, looked up): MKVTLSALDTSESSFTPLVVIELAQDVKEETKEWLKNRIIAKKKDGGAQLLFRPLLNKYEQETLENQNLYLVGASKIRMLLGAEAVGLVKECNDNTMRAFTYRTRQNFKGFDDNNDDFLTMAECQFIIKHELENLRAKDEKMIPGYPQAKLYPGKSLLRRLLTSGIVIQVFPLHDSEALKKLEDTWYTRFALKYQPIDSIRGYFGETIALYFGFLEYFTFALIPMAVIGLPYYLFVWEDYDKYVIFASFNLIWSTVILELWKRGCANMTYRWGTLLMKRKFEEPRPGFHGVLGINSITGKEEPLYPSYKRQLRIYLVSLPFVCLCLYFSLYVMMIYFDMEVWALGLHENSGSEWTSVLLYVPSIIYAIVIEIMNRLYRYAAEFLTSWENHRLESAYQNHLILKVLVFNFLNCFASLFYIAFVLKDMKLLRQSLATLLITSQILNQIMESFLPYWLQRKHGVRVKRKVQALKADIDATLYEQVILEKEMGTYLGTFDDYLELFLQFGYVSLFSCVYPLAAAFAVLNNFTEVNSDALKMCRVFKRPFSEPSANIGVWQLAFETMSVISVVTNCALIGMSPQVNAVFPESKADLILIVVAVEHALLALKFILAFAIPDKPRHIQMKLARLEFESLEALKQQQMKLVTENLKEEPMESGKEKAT
# Sequence of UniProt Q9Y2T2 (Q9Y2T2 whole entry, looked up): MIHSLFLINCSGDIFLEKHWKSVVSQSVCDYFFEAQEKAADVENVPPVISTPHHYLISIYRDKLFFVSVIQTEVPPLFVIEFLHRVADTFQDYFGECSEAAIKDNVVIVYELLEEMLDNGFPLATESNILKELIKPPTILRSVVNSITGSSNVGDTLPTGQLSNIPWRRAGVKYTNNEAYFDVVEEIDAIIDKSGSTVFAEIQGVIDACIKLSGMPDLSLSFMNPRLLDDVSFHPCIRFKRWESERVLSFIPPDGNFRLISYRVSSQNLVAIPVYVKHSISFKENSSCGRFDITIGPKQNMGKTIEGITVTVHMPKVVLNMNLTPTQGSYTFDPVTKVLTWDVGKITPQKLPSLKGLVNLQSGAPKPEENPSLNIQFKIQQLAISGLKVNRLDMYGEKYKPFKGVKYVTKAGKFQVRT
# Sequence of UniProt O75882 (O75882 whole entry, looked up): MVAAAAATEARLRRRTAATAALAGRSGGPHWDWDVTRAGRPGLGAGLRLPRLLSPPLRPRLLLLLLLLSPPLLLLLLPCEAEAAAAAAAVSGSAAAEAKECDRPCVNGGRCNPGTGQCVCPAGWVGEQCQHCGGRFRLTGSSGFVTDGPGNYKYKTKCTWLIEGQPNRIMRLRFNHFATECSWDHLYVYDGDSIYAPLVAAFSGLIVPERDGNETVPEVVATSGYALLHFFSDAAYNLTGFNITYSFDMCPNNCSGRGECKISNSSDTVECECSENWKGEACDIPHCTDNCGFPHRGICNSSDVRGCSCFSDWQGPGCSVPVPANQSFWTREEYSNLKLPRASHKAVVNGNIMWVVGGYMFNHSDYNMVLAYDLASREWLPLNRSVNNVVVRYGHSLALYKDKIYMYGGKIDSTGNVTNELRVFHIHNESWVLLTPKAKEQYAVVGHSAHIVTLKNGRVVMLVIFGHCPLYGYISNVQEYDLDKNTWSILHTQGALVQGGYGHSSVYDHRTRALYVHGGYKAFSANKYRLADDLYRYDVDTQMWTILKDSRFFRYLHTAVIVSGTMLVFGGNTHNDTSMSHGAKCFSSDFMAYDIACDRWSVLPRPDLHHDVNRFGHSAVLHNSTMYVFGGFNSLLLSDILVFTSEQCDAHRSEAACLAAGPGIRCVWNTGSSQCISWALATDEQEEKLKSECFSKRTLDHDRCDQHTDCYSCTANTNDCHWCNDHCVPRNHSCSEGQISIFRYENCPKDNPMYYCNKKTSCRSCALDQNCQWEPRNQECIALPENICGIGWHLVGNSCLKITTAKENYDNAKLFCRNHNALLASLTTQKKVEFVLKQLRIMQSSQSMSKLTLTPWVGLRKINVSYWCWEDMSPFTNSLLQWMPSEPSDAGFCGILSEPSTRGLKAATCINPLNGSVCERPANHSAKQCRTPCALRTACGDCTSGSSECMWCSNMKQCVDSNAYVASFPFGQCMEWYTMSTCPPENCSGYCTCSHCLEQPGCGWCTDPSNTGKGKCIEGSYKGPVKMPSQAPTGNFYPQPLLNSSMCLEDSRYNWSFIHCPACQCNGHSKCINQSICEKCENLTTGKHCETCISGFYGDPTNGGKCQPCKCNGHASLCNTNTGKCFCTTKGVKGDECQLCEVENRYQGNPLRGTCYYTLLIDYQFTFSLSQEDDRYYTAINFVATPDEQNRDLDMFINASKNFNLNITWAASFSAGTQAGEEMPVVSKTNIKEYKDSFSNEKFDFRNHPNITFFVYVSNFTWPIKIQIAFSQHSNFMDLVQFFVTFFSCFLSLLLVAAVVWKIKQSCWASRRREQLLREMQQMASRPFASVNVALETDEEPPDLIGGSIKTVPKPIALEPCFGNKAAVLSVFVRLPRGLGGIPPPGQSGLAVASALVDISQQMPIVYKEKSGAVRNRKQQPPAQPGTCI
# Sequence of UniProt O00203 (O00203 whole entry, looked up): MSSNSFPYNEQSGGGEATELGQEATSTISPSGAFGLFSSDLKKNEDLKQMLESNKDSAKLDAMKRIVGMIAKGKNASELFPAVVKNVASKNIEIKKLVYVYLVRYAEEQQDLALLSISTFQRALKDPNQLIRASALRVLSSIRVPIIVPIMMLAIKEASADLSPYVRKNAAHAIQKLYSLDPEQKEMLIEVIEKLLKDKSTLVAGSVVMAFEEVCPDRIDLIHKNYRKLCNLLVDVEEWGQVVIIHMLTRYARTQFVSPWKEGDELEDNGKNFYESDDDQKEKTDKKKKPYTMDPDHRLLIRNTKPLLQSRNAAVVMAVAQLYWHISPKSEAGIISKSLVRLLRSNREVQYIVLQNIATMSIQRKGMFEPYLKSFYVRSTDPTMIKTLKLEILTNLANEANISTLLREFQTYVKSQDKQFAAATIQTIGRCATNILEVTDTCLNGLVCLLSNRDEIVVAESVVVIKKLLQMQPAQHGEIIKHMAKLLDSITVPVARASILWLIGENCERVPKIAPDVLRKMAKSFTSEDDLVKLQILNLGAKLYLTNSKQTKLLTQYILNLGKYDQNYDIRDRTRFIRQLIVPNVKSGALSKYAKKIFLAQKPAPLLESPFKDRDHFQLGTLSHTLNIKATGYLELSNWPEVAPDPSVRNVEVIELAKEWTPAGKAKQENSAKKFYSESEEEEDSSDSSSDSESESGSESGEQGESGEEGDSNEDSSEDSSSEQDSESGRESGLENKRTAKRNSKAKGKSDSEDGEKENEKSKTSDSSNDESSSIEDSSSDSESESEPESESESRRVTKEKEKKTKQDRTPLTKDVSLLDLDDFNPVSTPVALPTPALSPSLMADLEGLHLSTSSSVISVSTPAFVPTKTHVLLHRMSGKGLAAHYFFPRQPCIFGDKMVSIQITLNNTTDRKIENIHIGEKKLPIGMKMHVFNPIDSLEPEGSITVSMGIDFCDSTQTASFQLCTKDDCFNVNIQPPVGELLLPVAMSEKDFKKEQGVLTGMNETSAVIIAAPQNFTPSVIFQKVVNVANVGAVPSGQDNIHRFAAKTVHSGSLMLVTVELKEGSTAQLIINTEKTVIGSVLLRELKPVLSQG
# Sequence of UniProt P17544 (P17544 whole entry, looked up): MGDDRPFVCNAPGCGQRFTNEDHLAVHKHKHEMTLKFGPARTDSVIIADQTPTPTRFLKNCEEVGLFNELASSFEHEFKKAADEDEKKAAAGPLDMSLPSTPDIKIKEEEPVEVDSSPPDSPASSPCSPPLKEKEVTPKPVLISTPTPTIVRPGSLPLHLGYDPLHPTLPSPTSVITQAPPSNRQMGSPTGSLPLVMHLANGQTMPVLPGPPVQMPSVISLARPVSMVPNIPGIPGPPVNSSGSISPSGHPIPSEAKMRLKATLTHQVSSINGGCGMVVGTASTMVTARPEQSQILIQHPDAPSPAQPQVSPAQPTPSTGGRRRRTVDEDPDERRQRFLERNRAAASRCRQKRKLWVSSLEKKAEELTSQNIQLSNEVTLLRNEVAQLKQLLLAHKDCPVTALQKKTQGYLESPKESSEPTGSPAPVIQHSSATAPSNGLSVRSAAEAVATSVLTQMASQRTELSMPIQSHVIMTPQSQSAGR
# Sequence of UniProt Q96CM8 (Q96CM8 whole entry, looked up): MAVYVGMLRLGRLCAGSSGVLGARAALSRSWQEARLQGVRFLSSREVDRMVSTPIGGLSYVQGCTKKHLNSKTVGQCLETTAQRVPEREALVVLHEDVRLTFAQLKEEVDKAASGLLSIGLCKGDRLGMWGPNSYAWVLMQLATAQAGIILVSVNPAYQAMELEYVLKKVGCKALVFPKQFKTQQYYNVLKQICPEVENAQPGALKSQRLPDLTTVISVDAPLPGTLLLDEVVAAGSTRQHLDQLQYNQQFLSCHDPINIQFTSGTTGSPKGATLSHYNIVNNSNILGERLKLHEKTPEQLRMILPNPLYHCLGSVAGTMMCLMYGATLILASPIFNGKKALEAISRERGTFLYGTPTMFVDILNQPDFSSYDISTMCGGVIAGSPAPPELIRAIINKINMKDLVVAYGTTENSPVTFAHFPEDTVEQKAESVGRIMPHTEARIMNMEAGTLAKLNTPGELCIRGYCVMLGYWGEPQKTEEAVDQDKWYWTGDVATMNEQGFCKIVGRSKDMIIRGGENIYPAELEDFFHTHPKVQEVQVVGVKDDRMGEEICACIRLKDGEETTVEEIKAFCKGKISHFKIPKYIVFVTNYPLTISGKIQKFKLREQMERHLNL
# Sequence of UniProt Q8N8R7 (Q8N8R7 whole entry, looked up): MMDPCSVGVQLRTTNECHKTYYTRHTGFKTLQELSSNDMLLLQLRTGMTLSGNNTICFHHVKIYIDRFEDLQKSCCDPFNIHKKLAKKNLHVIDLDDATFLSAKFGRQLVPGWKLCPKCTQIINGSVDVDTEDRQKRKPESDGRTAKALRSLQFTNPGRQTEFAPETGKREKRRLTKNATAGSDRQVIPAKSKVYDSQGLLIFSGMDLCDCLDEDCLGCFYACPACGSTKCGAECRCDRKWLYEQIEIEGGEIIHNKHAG
# Sequence of UniProt O00244 (O00244 whole entry, looked up): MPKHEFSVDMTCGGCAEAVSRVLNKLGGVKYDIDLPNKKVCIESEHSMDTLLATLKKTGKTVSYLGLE
row,Target,probe-labelled cysteine peptide fold change
1,ANKFY1_Q9P2R3_34_CALLAAQANK (UniProt Q9P2R3),0.0817
2,ATP6V1A_P38606_138_DIKWDFTPCK (UniProt P38606),-1.4
3,ALOX5_P09917_419_EQLICECGLFDK (UniProt P09917),-0.117
4,AHCTF1_Q8WYP5_521_CLVAGLLSPR (UniProt Q8WYP5),-0.0709
5,ARL14EP_Q8N8R7_119_CTQIINGSVDVDTEDRQK (UniProt Q8N8R7),0.179
6,ANAPC1_Q9H1A4_225_EPLPTMFSMLHPLDEITPLVCK (UniProt Q9H1A4),0.139
7,ACSL1_P33121_625_GFEGSFEELCR (UniProt P33121),-0.088
8,ANO10_Q9NW15_124_GFDDNNDDFLTMAECQFIIK (UniProt Q9NW15),-0.185
9,ADSL_P30566_180_CCLWIQDLCMDLQNLKR (UniProt P30566),-0.00936
10,ACSF2_Q96CM8_503_WYWTGDVATMNEQGFCK (UniProt Q96CM8),0.113
11,ANLN_Q9NQW6_437_ELACLR (UniProt Q9NQW6),-0.0466
12,ATF7_P17544_409_DCPVTALQK (UniProt P17544),-0.183
13,ANKRD50_Q9ULJ7_122_AQDSDTLCVGGFIR (UniProt Q9ULJ7),-0.908
14,ATG16L1_Q676U5_533_CGSDWTR (UniProt Q676U5),-0.0167
15,ATOX1_O00244_12_PKHEFSVDMTCGGCAEAVSR (UniProt O00244),0.412
16,AP3M1_Q9Y2T2_288_ENSSCGR (UniProt Q9Y2T2),0.615

row,Target,probe-labelled cysteine peptide fold change
1,ASNA1_O43681_53+55_TTCSCSLAVQLSK (UniProt O43681),0.0217
2,ATAD2_Q6PL18_785_NACYQPMSFRPR (UniProt Q6PL18),-0.0288
3,ATRN_O75882_1361_PIALEPCFGNK (UniProt O75882),-0.269
4,ARAP1_Q96P48_995_KCGQTSK (UniProt Q96P48),-0.601
5,ASF1B_Q9NVP2_201_GLGLPGCIPGLLPENSMDCI (UniProt Q9NVP2),-0.169
6,ASPM_Q8IZT6_51_SPFLCFGDVLLGASR (UniProt Q8IZT6),0.088
7,ALDH9A1_P49189_376_DGYYMRPCVLTNCR (UniProt P49189),0.0599
8,ACTN4_O43707_60_KTFTAWCNSHLR<|>ACTN1_P35609_41_KTFTAWCNSHLR (UniProt P35609+O43707),-0.196
9,ANXA2P2_A6NMY6_9_STVHEILCK<|>ANXA2_P07355_9_STVHEILCK (UniProt P07355+A6NMY6),-0.0855
10,AHCY_P23526_297_HFEQMKDDAIVCNIGHFDVEIDVK (UniProt P23526),0.148
11,ACP1_P24666_91_QITKEDFATFDYILCMDESNLR (UniProt P24666),-0.236
12,ATIC_P31939_363_NGNYCVLQMDQSYKPDENEVR (UniProt P31939),0.165
13,AP3B1_O00203_215_STLVAGSVVMAFEEVCPDRIDLIHK (UniProt O00203),-0.0855
14,ALDH3B1_P43353_162_ILAEVLPQYVDQSCFAVVLGGPQETGQLLEHR (UniProt P43353),0.256
15,ARIH1_Q9Y4X5_304+307_QFCFNCGENWHDPVK (UniProt Q9Y4X5),-0.107

# Same assay, conditions: 50 µM; THP-1; incubation time: 4 h
row,Target,probe-labelled cysteine peptide fold change
1,ANKFY1_Q9P2R3_34_CALLAAQANK (UniProt Q9P2R3),-0.181
2,ATP6V1A_P38606_138_DIKWDFTPCK (UniProt P38606),-4.16
3,ALOX5_P09917_419_EQLICECGLFDK (UniProt P09917),-0.997
4,AHCTF1_Q8WYP5_521_CLVAGLLSPR (UniProt Q8WYP5),-0.461
5,ARL14EP_Q8N8R7_119_CTQIINGSVDVDTEDRQK (UniProt Q8N8R7),-0.325
6,ANAPC1_Q9H1A4_225_EPLPTMFSMLHPLDEITPLVCK (UniProt Q9H1A4),0.0384
7,ACSL1_P33121_625_GFEGSFEELCR (UniProt P33121),-0.0942
8,ANO10_Q9NW15_124_GFDDNNDDFLTMAECQFIIK (UniProt Q9NW15),-0.00539
9,ADSL_P30566_180_CCLWIQDLCMDLQNLKR (UniProt P30566),-0.198
10,ACSF2_Q96CM8_503_WYWTGDVATMNEQGFCK (UniProt Q96CM8),-0.245
11,ANLN_Q9NQW6_437_ELACLR (UniProt Q9NQW6),-0.263
12,ATF7_P17544_409_DCPVTALQK (UniProt P17544),-0.603
13,ANKRD50_Q9ULJ7_122_AQDSDTLCVGGFIR (UniProt Q9ULJ7),-3.64
14,ATG16L1_Q676U5_533_CGSDWTR (UniProt Q676U5),0.12
15,ATOX1_O00244_12_PKHEFSVDMTCGGCAEAVSR (UniProt O00244),-0.82
16,AP3M1_Q9Y2T2_288_ENSSCGR (UniProt Q9Y2T2),0.181

row,Target,probe-labelled cysteine peptide fold change
1,ASNA1_O43681_53+55_TTCSCSLAVQLSK (UniProt O43681),-0.23
2,ATAD2_Q6PL18_785_NACYQPMSFRPR (UniProt Q6PL18),-0.333
3,ATRN_O75882_1361_PIALEPCFGNK (UniProt O75882),0.0495
4,ARAP1_Q96P48_995_KCGQTSK (UniProt Q96P48),-2.68
5,ASF1B_Q9NVP2_201_GLGLPGCIPGLLPENSMDCI (UniProt Q9NVP2),0.0493
6,ASPM_Q8IZT6_51_SPFLCFGDVLLGASR (UniProt Q8IZT6),-0.213
7,ALDH9A1_P49189_376_DGYYMRPCVLTNCR (UniProt P49189),-0.0147
8,ACTN4_O43707_60_KTFTAWCNSHLR<|>ACTN1_P35609_41_KTFTAWCNSHLR (UniProt P35609+O43707),-0.61
9,ANXA2P2_A6NMY6_9_STVHEILCK<|>ANXA2_P07355_9_STVHEILCK (UniProt P07355+A6NMY6),-0.241
10,AHCY_P23526_297_HFEQMKDDAIVCNIGHFDVEIDVK (UniProt P23526),-0.164
11,ACP1_P24666_91_QITKEDFATFDYILCMDESNLR (UniProt P24666),-1.14
12,ATIC_P31939_363_NGNYCVLQMDQSYKPDENEVR (UniProt P31939),-0.0593
13,AP3B1_O00203_215_STLVAGSVVMAFEEVCPDRIDLIHK (UniProt O00203),-0.052
14,ALDH3B1_P43353_162_ILAEVLPQYVDQSCFAVVLGGPQETGQLLEHR (UniProt P43353),-0.223
15,ARIH1_Q9Y4X5_304+307_QFCFNCGENWHDPVK (UniProt Q9Y4X5),-1.11
